Test results taken from the supplement of paper PMC10338343.
± gives the standard deviation. Only a part is listed here, and it is no random draw.

system: MIWI (PIWIL1) piRISC loaded with piRNA #1 (30 nt); assay: pre-steady-state target cleavage rate (min^-1); MIWI and MILI are mouse PIWI proteins and EfPiwi is from a freshwater sponge; tags in brackets are library labels; higher = faster piRNA-guided slicing of the target; settings: guide: piRNA #1 5'p-UGAGGUAGUAGGUUGUAUAGUAUCCAGAGG; auxiliary factor: 500 nM mouse GTSF1
How it was run: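 The pre-steady-state cleavage rate was derived from a burst-and-steady-state fit of Cleave-'n-Seq data. For these assays, 1 nM active affinity-purified piRISC loaded with a single synthetic guide was mixed with […] a transcribed, DNA-blocked target RNA library in HEPES–potassium acetate buffer at 33 °C, with or without 500 nM GTSF1 partner protein, for 0–8 or 0–960 min. Sequencing counts of uncleaved targets were normalised to depth and to weakly complementary targets, and k3 was capped at 0.0001 min^-1 after three trials were pooled.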
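Further: 1 nM active piRISC with 0.1 nM target library at 33 °C single turnover.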

Sequence	pre-steady-state target cleavage rate
GGAGACCUAUGUAUACAUGCUACUACCUCA	0.00421 ± 0.0021
GGAGACCUAUCUAUACUACCUACAACCUCA	0.0031 ± 0.0021
GCUGUGGAUACUAUACAACCUACAACCUCA	0.288 ± 0.045
GGAGACGUUACUAUACAACCUACUUCCUCA	0.212 ± 0.036
GGAGUGGAUACAAUACAACGUACUACCUCA	0.454 ± 0.035
GGAGACGAUACAAUACAACCUACUACCUGA	0.606 ± 0.064
GGAGUGGAUACUAUACAACCUACUACCUCCA	1.63 ± 0.1
GGAGAGGAUACUUUACAUCCUACUACCUCA	1.11 ± 0.062
CCUCUGGAUACUAUACAACCUACUACCAGA	0.227 ± 0.077
CCUCUGGAUACUAUACAUCCUACUACCACA	1.56 ± 0.12
GGUCUGGAUAGUAUACAAGCUACUACCUCA	0.368 ± 0.042
GGAGAGGAUACUAUAGAAGCUACUACCUCA	0.241 ± 0.024
GGACUGGAUACUAUAGCAACCUACUACCUCA	0.931 ± 0.12
GGAGACGAUACUAUACAACCUACAACCUGA	0.26 ± 0.078
GGACUGGUUACUAUACAACGUACUACCUCA	0.864 ± 0.088
GGAGACCUAUCUAUAGUACCUACUACCUCA	0.0069 ± 0.0022
GGUCUGGAUACUUUACAACCUACUACCACA	0.266 ± 0.034
GGAGACCAUAUUAUACAACCUACUACCUCA	1.77 ± 0.15
GGAGACCUAUCUAUACAACCUACUUCCACA	0.0128 ± 0.0042
GGAGACCUAACUAUACUACCUACAACCUCA	0.00419 ± 0.0032

Sequence	pre-steady-state target cleavage rate
GGAGUGGAUACUAUACAACCAUCUACCUCA	0.0428 ± 0.0099
GGAGACGAUACUAUACAACCUUCUACCUCA	0.675 ± 0.033
GGAGACCUUACUAUACAGACCUACUACCUCA	< 0.0001
GGAGAGGAUACUAUACAUCCUACUACCACA	0.252 ± 0.023
GGAGACCAUACUAAACAACCUACUACGUCA	0.626 ± 0.045
GGUCUGGAUAUUAUACAACCUACUACCUCA	1.98 ± 0.12
GGAGACGAUACUAUACAAGCUACUACCUCA	1.15 ± 0.053
GGAGUCGAUACUAUACAACCAACUACCUCA	0.115 ± 0.01
GGAGACCAUACUAUACAACCUACUACCUGA	1.03 ± 0.076
GGAGAGCUUACUAUACAACCUACUACCUCA	1.51 ± 0.11
GGAGACCUAUGUAUACAACCUACUGACCUCA	0.0582 ± 0.013
CCUCUAGAUACUAUACAACCUACUACCUCA	2.2 ± 0.13
CCUCUGGAAACUAAACAACCUACUACCUCA	2 ± 0.13
GGAGACCUAACUAUACAACCUAGCUACCUCA	0.0156 ± 0.0054
GGAGUCGAUACUAUACAACCUACAACCUCA	0.245 ± 0.028
CCUCUGGAUACUAUACAACCUUCUACGUCA	0.53 ± 0.034
GGAGUGGAUACUUAUACAACCUACUACCUCA	1.39 ± 0.1
CCUCUGGAUACUAUAGAACCUACUACCUCA	0.664 ± 0.06
CCAUCUGGAUACUAUACAACCUACUACCUCA	1.4 ± 0.072
GGAGACCAUACUAUACAACCUAGUACCACA	0.344 ± 0.07
